# In PubChem BioAssay AID686978 (National Center for Advancing Translational Sciences (NCATS), 2013):
# Where “and” joins values, the source holds several entries; their conditions need not be identical. Equal entries are not always repeated. In all, about 420,000 compounds went through this assay and about 64,000 (15%) were called active. The shares of active, inactive and inconclusive entries below differ from those in the screen. Calls come from the whole dose curve; as a rule, active = well fitted inhibition curve with a large enough effect; inconclusive = small, poorly fitted or top-dose-only effect; inactive = flat fitted curve, though single readings scatter. Potencies beside an inconclusive call are fits to weak or partial responses and may not hold up.
# Assay: qHTS for Inhibitors of human tyrosyl-DNA phosphodiesterase 1 (TDP1): qHTS in cells in absence of CPT; note: nearly all actives have a fitted effect of over 55% in size
# Details: DT40 Tdp1-/- hTDP1 cells, no CPT, ATP luminescence, 48 h; activity change, negative = growth inhibition: at 46.2 µM (top of the series) unless noted
# In short: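 A cellular qHTS used chicken DT40 cells lacking endogenous Tdp1 but carrying stably transfected human TDP1. Compounds were applied without camptothecin, and cell growth kinetics were judged by ATP-dependent luminescence after ≥48 hr.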
# % is set by controls: 0 for no effect and ±100 for the full control effect; potency is the fitted concentration of half-maximal effect; tags give direction and shape of the fitted curve.
SMILES,Potency,"activity change, negative = growth inhibition"
CC(C)CC(=O)NCCCCc1ccccc1,"inconclusive: 6.51 µM [inhibitor, full curve, poor fit]",–
CC(=O)c1cccc(NC(=O)Nc2cccs2)c1,–,inconclusive: -35.6% [inhibitor]
CCOC(=O)N1CCC(N2CCN(c3ccccc3)CC2)CC1,inactive,–
Cc1cccc(CSc2nnc(-c3ccccn3)n2N)c1,"inconclusive: 23.1 µM [inhibitor, single point]",–
O=C1CCC2S/C(=C/Nc3ccc(C(F)(F)F)cc3)C(=O)N12 (stereo unspecified),"inconclusive: 29.1 µM [inhibitor, single point]",–
O=C(NCCN1CCN(c2ccccc2)CC1)c1cccn2c(=O)c3ccccc3nc12,active: 18.4 µM,–
c1cncc(Nc2c3ccccc3nc3ccccc23)c1,active: 14.6 µM,–
Cc1cccc(Nc2nc(-c3ccc(O)c(O)c3)cs2)n1,active: 1.64 µM,–
Nc1ccc(C(=O)OCC(=O)Nc2cccc(S(=O)(=O)NC3=NCCCCC3)c2)cc1[N+](=O)[O-],–,inconclusive: -30.9% [inhibitor]
COc1ccc(OC)c(NC(=O)C(Cc2ccccc2)NS(=O)(=O)c2ccc3c(c2)CCC(=O)N3)c1 (stereo unspecified),"inconclusive: 29.1 µM [inhibitor, single point]",–
Cc1ccc(CSc2nc3ccncc3n2CC(=O)Nc2cc(C)cc(C)c2)cc1,"inconclusive: 18.4 µM [inhibitor, single point]",–
COc1cc(OC)cc(C(=O)Nc2ccc(NC(=O)c3ccco3)c(C)c2)c1,"inconclusive: 20.6 µM [inhibitor, partial curve]",–
Oc1c(Br)cc(C2N=C(c3ccccc3)NO2)cc1Br (stereo unspecified),"inconclusive: 20.6 µM [inhibitor, single point]",–
C[C@H](CCC(=O)O)[C@H]1CC[C@H]2[C@H]3C(C[C@H](O)[C@]12C)[C@@]1(C)CC[C@@H](O)C[C@H]1C[C@H]3O (stereo partly specified),inactive,–
O=c1[nH]nc(Cc2ccc(-c3cccc(Cl)c3)o2)c2ccccc12,"inconclusive: 25.9 µM [inhibitor, single point]",–
COc1ccc(C(=O)NC(=S)NCCc2ccccc2)cc1,"inconclusive: 29.1 µM [inhibitor, single point]",–
Cc1cc(=O)oc2c3c(cc(OCC(=O)NCc4ccncc4)c12)OC(C)(C)CC3,active: 23.1 µM,–
COCCN(C(=S)Nc1cc(C)cc(C)c1)C(C)c1cccs1 (stereo unspecified),"inconclusive: 32.6 µM [inhibitor, single point]",–
CC(C)c1ccc(NC(=O)[C@H](Cc2c[nH]c3ccccc23)NC(=O)[C@@H]2Cc3ccccc3CN2)cc1,"inconclusive: 16.4 µM [inhibitor, single point]",–
Cn1cc([C@]2(O)C(=O)Nc3ccc(Br)cc32)c2ccccc21,"inconclusive: 29.1 µM [inhibitor, single point]",–
COc1ccc(S(=O)(=O)N2CCOC2CNC(=O)C(=O)NCCc2ccccc2)cc1C (stereo unspecified),"inconclusive: 25.9 µM [inhibitor, single point]",–
CN(c1ccc(OCC(=O)OCC(=O)Nc2ccc([N+](=O)[O-])cc2)cc1)S(=O)(=O)c1cccs1,inactive,–

SMILES,Potency,"activity change, negative = growth inhibition"
CCOC(=O)c1cn(Cc2cccc(Cl)c2)nn1,inactive,–
COc1ccc(-c2c(C#N)c(SCC(N)=O)nc3c2CCCC3)cc1,"inconclusive: 29.1 µM [inhibitor, single point]",–
CN(CC(=O)Nc1ccc(OC(F)(F)F)cc1)C(=O)Cn1c(=O)cnc2ccccc21,"inconclusive: 32.6 µM [inhibitor, single point]",–
CCCNC(=O)c1cc(S(=O)(=O)N2CCC3(CC2)OCCO3)ccc1F,inactive,–
CCOc1ccc(OCc2ccc(C(=O)N3N=C(C(F)F)CC3(O)C(F)F)o2)cc1 (stereo unspecified),"inconclusive: 13 µM [inhibitor, partial curve, poor fit]",–
Cc1ccc(S(=O)(=O)CCC(=O)OCC(=O)c2c(N)n(CC(C)C)c(=O)n(C)c2=O)cc1,"inconclusive: 25.9 µM [inhibitor, single point]",–
CCc1ccc(CNC(=O)CCn2ccc3cc(S(=O)(=O)N4CCCC4)ccc32)cc1,"inconclusive: 25.9 µM [inhibitor, partial curve, poor fit]",–
CCCN1C(=O)/C(=C2\SC(N3CCCCC3)=NC2=O)c2ccccc21,active: 18.4 µM,–
Cc1cc(C)c(S(=O)(=O)ON2C(=O)c3ccccc3C2=O)cc1C,active: 3.26 µM,–
CN(C)c1nc(OCCNC(=O)COc2ccc(Cl)cc2Cl)nc(N2CCOCC2)n1,active: 13 µM,–
O=C(NCc1ccco1)c1cc2n(n1)C(C(F)(F)F)CC(c1ccc(Br)cc1)N2 (stereo unspecified),"inconclusive: 9.2 µM [inhibitor, partial curve]",–
O=C(Nc1cccc(-c2ccc3nncn3n2)c1)c1ccco1,"inconclusive: 25.9 µM [inhibitor, single point]",–
O=C1c2ccccc2[C@@H]2CC(O)C(O)CCN12 (stereo partly specified),inactive,–
O=C(COCc1cc(-c2ccc3c(c2)OCO3)on1)Nc1cccc(O)c1,"inconclusive: 18.4 µM [inhibitor, single point]",–
COc1ccc(CN(C(=O)c2cnccn2)C(C(=O)Nc2ccc(F)cc2)c2ccccc2)cc1 (stereo unspecified),"inconclusive: 20.6 µM [inhibitor, single point]",–
O=C(NCCCl)Nc1cc([N+](=O)[O-])ccc1Cl,"inconclusive: 25.9 µM [inhibitor, single point]",–
CC(C)=C1SC(N2CCN(c3ccc(Cl)cc3)CC2)=NC1=O,"inconclusive: 16.4 µM [inhibitor, single point]",–
CCN(CC)S(=O)(=O)c1ccc2c(c1)N(CC(=O)Nc1cccc(C(C)=O)c1)C(=O)CO2,"inconclusive: 16.4 µM [inhibitor, partial curve]",–
Cc1csc(SCC(=O)Nc2ccc(C)c(F)c2)n1,"inconclusive: 16.4 µM [inhibitor, single point]",–
CCOc1ccc2oc(C(=O)NC3CCN(Cc4ccccc4)CC3)c(C)c2c1,active: 5.17 µM,–
COc1cc(C)cc2c1OC(c1ccccc1)CC2=O (stereo unspecified),"inconclusive: 13 µM [inhibitor, partial curve]",–
COc1ccc(-c2nnc(SCC(=O)NC3CCCc4ccccc43)n2N)cc1 (stereo unspecified),inactive,–

SMILES,Potency,"activity change, negative = growth inhibition"
O=C(Nc1ccc(Br)cc1)Nc1nc2c(s1)CCCCCC2,active: 18.4 µM,–
Cc1cccc(C(=O)n2nc(-c3ccco3)nc2NCc2ccccc2)c1,"inconclusive: 29.1 µM [inhibitor, single point]",–
COc1ccc2c(c1)c(CC(=O)Nc1cccc(S(N)(=O)=O)c1)c(C)n2C(=O)c1ccc(Cl)cc1,"inconclusive: 29.1 µM [inhibitor, single point]",–
COc1ccc(NC(=O)C(=O)Nc2ccc3nc4n(c(=O)c3c2)CCCCC4)c(OC)c1,inactive,–
CC(=O)c1c(-c2ccccc2)c2cc(Cl)ccc2[nH]c1=O,–,inconclusive: -34.7% [inhibitor]
Cc1cccc(N2CCN(C(=O)c3ccc(N4CCCC4=O)cc3)CC2C)c1 (stereo unspecified),"inconclusive: 25.9 µM [inhibitor, single point]",–
COc1ccc(Cl)cc1S(=O)(=O)Nc1ccc2c(c1)n(C)c(=O)n2C,"inconclusive: 18.4 µM [inhibitor, single point] and inconclusive: 20.6 µM [inhibitor, single point]",–
CCC(=O)N1c2ccccc2CC1C(=O)NCCCN1CCN(c2ccc(F)cc2)CC1 (stereo unspecified),"inconclusive: 29.1 µM [inhibitor, single point]",–
O=C(c1ccc(CS(=O)Cc2ccccc2Cl)o1)N1CCN(C2CCCCC2)CC1 (stereo unspecified),"inconclusive: 18.4 µM [inhibitor, single point]",–
COc1ccc(-n2nc3c(N4CCCC(C(=O)NCc5ccccc5C)C4)nnc(C)c3c2C)cc1 (stereo unspecified),active: 5.17 µM,–
CCOc1ccc(CCNC(=O)c2ccc(=O)[nH]c2)cc1OCC,inactive,–
Cc1cc(C(=O)Cn2cc(C(F)(F)F)ccc2=O)c(C)n1-c1ccccc1,"inconclusive: 18.4 µM [inhibitor, single point]",–
CC(C)CNC(=O)CC(c1ccccc1)c1c(O)ccc2ccccc12 (stereo unspecified),"inconclusive: 29.1 µM [inhibitor, single point]",–
CCOC(=O)C1(Cc2cccc(OC)c2)CCN(Cc2cnc(C)s2)CC1,"inconclusive: 16.4 µM [inhibitor, single point]",–
COc1ccc(-c2[nH]nc3nc(N4CCN(C(=O)c5ccoc5)CC4)cc(C(F)(F)F)c23)cc1,active: 8.2 µM,–
Cn1nc(C(C)(C)C)cc1NC(=O)C1(C)CCN1C(=O)C1(c2ccccc2)CCCC1 (stereo unspecified),"inconclusive: 18.4 µM [inhibitor, single point]",–
COc1ccc(Cl)cc1NC(=O)CN1C(=O)NC(Cc2c[nH]c3ccccc23)C1=O (stereo unspecified),"inconclusive: 16.4 µM [inhibitor, single point]",–
O=C(NCCn1cc(SCc2ccc(C(F)(F)F)cc2)c2ccccc21)c1cccs1,"inconclusive: 23.1 µM [inhibitor, single point]",–
Cc1ccccc1OCC(O)CN1CCN(CC(O)COc2ccccc2C)C(C)C1 (stereo unspecified),active: 16.4 µM,–
CCOC(=O)c1cc(-c2ccco2)nc2c1c(C)nn2CCC#N,"inconclusive: 29.1 µM [inhibitor, single point]",–
CC(=O)/C(=N/Nc1ccccc1)Sc1nnc(C(O)c2ccccc2)n1-c1ccccc1 (stereo unspecified),"inconclusive: 25.9 µM [inhibitor, single point]",–
COc1cc(NC(=S)NCCc2ccccc2)c(OC)cc1NC(=O)CC(C)C,–,inconclusive: -37.6% [inhibitor]
